# The supplement of paper PMC3334620
# In all, about 33,000 sequences were measured (“E-score (-0.5 to 0.5)”: median about -0.016, highest 2% from about 0.32 on). The list shows a part of the results.
# Target: T1, Stp1 (UniProt B3LFK1)
# T1 sequence: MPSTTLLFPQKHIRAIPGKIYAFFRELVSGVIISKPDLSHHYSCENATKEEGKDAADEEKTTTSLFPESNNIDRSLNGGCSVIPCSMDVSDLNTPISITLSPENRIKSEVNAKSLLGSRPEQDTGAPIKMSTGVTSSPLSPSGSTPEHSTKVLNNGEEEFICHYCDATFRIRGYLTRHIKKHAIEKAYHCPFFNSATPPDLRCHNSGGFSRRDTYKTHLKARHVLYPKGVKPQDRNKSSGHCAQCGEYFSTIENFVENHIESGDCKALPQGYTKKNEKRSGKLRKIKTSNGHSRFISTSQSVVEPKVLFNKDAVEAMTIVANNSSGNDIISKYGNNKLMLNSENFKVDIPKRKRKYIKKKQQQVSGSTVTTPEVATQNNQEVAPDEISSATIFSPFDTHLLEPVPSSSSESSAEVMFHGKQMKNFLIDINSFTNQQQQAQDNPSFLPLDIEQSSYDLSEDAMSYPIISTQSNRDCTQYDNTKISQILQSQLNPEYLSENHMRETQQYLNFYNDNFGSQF
# Test: PBM E-score (8-mer binding enrichment) (E-score (-0.5 to 0.5)); higher = stronger / more preferred TF binding; most listed sequences are background and not binding sites
# Settings: protein concentration: 200 nM; construct: GST-full length
# How it was run: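 For each ungapped eight-base word taken together with its reverse complement, the Universal PBM Analysis Suite assigned an E-score. Binding data came from GST-tagged yeast transcription factors, applied at about 100-200 nM, on universal all-10-mer Agilent arrays made double-stranded by primer extension. Fluorescent anti-GST marked bound protein, and scans were normalised with masliner.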
row,Sequence,PBM E-score
1,CGTGCGAA,0.193
2,GCCTTCGC,0.226
3,CCATATCC,-0.0577
4,AGGGCGAT,0.0677
5,AGCAGACT,0.0691
6,TATATACA,0.1
7,ACCCGGCG,-0.0191
8,ACCCAAAA,0.103
9,GGTACGTA,-0.147
10,CAAGGCAA,0.264
11,CGCCTGAA,0.265
12,ACAATGAC,-0.0406
13,GAATTTAC,0.124
14,ATAGGTCA,0.00783
15,AGGGGGTG,-0.456
16,CACACCCC,-0.296
17,ACATACGT,0.0537
18,CAGACTGA,-0.0583
19,CTATTTCC,0.125
20,GCTCGAGC,0.0111
21,AATAACTG,0.0806
22,ACGGGAAA,0.178
23,GACAAGGC,0.186
24,ACAGGCTG,-0.222
25,GAATTGAA,-0.00546

row,Sequence,PBM E-score
1,CTAGCCTC,-0.162
2,ACCAGTGA,-0.0469
3,GGCGTGAA,0.156
4,ACTGAGCG,0.0212
5,AAGTCCAC,-0.117
6,GCGTATCA,0.221
7,CAGCGGCA,0.3
8,AATCGGAC,-0.167
9,CCACTGTA,-0.0895
10,ACGAATGA,0.0426
11,GGCTACAA,0.0408
12,TGACAGCA,0.101
13,CACACTAG,-0.0211
14,ACGACGTG,0.0302
15,CGACTTGA,-0.146
16,GCGGCATA,0.435
17,AACTCCTC,-0.139
18,CCGCCGTC,0.255
19,GCCCTACC,-0.0429
20,ATGGAGCA,0.055
21,GTTCAAGA,0.0574
22,ATCGGAAA,0.00784
23,GCCTACCC,-0.186
24,CGCGCAGA,0.22
25,ATGGTGGG,-0.164

row,Sequence,PBM E-score
1,AGGACATC,0.103
2,CAGGCGAG,-0.17
3,TAATGAAA,0.106
4,TACTTACA,0.0685
5,AACCTTAG,-0.109
6,AACTCTCG,-0.222
7,TGTGCTAA,0.0547
8,GGACTTTA,-0.121
9,TAAATACA,0.194
10,TCGTGAAA,-0.101
11,GGACCCGA,-0.149
12,GTGACAAA,-0.00152
13,AGCAGGGG,-0.405
14,ATGGTGCC,0.372
15,ACCAACGG,0.173
16,AGCGGTTG,-0.0874
17,CGGCAGAC,0.0714
18,AGACTTAT,-0.25
19,GCACCCGA,-0.0949
20,AAATAATA,0.226
21,AACGTGCT,-0.16
22,AGTATGCG,-0.00159
23,CCCCGCCA,-0.00909
24,AGGCGTCG,0.253
25,CAGTTATG,-0.0302

row,Sequence,PBM E-score
1,GAACTCAA,-0.254
2,CTGTGCTC,0.0867
3,CACAGTCC,-0.0372
4,AATTTTGT,0.0756
5,AGCACGAC,-0.156
6,ATCCTGGC,-0.109
7,AATTCAGC,-0.101
8,AGCGGCTG,0.0689
9,GAAAGGGA,-0.0802
10,GCACTAAC,0.042
11,GTGTCCAA,0.0717
12,GTAATTAC,0.17
13,ACCGTAGC,-0.138
14,CGTGCGGC,0.476
15,CAGAAGCG,0.106
16,GTTTTAAA,0.214
17,GCGGGTGA,0.0492
18,GGAGAATA,0.0992
19,GCCGCAGC,0.394
20,ACCTCATG,-0.208
21,ACGCTGGA,-0.0566
22,CTGTTATC,-0.0264
23,CCACGACA,-0.158
24,CAGGGAGG,-0.281
25,CGTCAACC,-0.141

row,Sequence,PBM E-score
1,GATATTTA,0.169
2,TAGTTGCA,-0.0873
3,ACCGCGCA,0.0261
4,GAACGAGA,-0.168
5,GTTGGCCA,-0.15
6,ACGGACGC,0.0689
7,CAACGCGA,0.0203
8,GAGACAGA,-0.0347
9,ATTCGGTC,0.00925
10,AAACGTCA,-0.167
11,CCACTACG,0.021
12,GGTGGGCA,-0.064
13,TTTACAAA,0.167
14,AGATGGTG,-0.0974
15,ATTGAAAT,0.123
16,ATTGCAGG,-0.0572
17,AGTATCAA,0.211
18,CCGCTTCG,0.0727
19,CGGTTGGA,-0.0808
20,AACAAGCA,-0.0118
21,CCGGCGCG,0.298
22,ATCATCAG,0.05
23,TATGTAAA,0.242
24,ACAGGTAT,-0.0623
25,AGAAGATG,-0.169

row,Sequence,PBM E-score
1,ACCACTCC,-0.105
2,CTACAGTC,-0.181
3,GTGCGAAC,-0.00318
4,AGCCTTTA,-0.091
5,ATCGCGGA,-0.192
6,TACGACAA,0.147
7,CGCGTACC,0.108
8,CCTTTATA,-0.11
9,CCCCGTGC,0.316
10,ACATAACG,0.0215
11,ACGATAGA,-0.141
12,ACGCACGT,0.0412
13,GACGCGAA,-0.149
14,AAAAGAAT,0.322
15,CCATGTTC,0.103
16,AGATCCGG,-0.113
17,CCCGCCGC,0.332
18,TGAAAGAA,0.211
19,GTTTGACA,0.0456
20,CTGCAGTA,-0.158
21,TCTAAAAA,0.0976
22,ACCTTTTC,0.0279
23,ATTTGCGA,0.174
24,CCTCCACG,-0.0808
25,CATCACCA,-0.0538

row,Sequence,PBM E-score
1,AAGGGGAG,-0.266
2,CGGGTAGA,-0.186
3,AAACAAAT,0.159
4,GCAAAACC,-0.0726
5,CTGAAACC,0.0334
6,AATCACAG,-0.147
7,CAATTACG,0.0559
8,GACTATAA,0.112
9,ACTGATCC,-0.0501
10,AACCACCC,-0.136
11,ATTTTGAC,0.161
12,GCCCAGCC,-0.00405
13,AAAACGGT,-0.0136
14,CTACCGAC,0.00731
15,CGTCCCGA,-0.0925
16,ACACGTAT,0.13
17,CAGAACGG,0.119
18,CCCTAGAA,-0.0371
19,TACGCGGA,0.103
20,ACGCCGCG,0.473
21,AATAGCCC,-0.162
22,ATTGGTTA,0.0929
23,CGGAAATA,0.169
24,AACTGCTT,-0.0831
25,ATGCTGGC,-0.137

row,Sequence,PBM E-score
1,ACGATCAC,-0.0583
2,CGAAATTC,0.0652
3,AAGTACCT,-0.144
4,GGTTGCAA,0.0623
5,CCCGAACA,-0.0755
6,AGAATGTA,0.173
7,ATGGACAC,0.0252
8,CTGCTTTC,-0.0352
9,AAGTAAAT,0.181
10,GCATATGC,0.0115
11,ACGCCGGC,0.168
12,AGCAAGAG,-0.0538
13,GAGGATAA,-0.0242
14,ACTGAACA,0.158
15,AGGGCTGA,-0.172
16,TACACATA,0.125
17,AGGTAGCG,-0.105
18,AGCTGTGC,0.154
19,AAGCATGC,-0.0122
20,GAAAAGAA,0.0978
21,CAGGATGC,0.0245
22,ACGCGGCA,0.479
23,CGGTAGCA,-0.112
24,AGGGCCGA,0.0233
25,TCTGCAGA,0.0477

row,Sequence,PBM E-score
1,TCTACGAA,-0.0374
2,GTATTTAA,0.117
3,ATTTTCCC,-0.00016
4,GGCACACC,0.0187
5,CGACTAAG,-0.122
6,ATAGATAT,0.0773
7,ACAACCTG,-0.155
8,ATACACCA,-0.0952
9,AGTGGGAG,-0.167
10,AGTGTCGC,-0.0791
11,GCCTCGAC,0.0115
12,ACGTAAGG,0.0644
13,CCATACTA,-0.0681
14,CTCGTACC,-0.12
15,ATTTGATA,0.092
16,AGCATACT,-0.0298
17,AGATCTAG,-0.143
18,ATTCGCTC,-0.0527
19,CGAAGTCA,0.0593
